Measurements published in paper PMC9911399, “Two distinct binding modes provide the RNA-binding protein RbFox with extraordinary sequence specificity”.
Numbering of substitutions follows the chain as printed; changes in the protein carry UniProt numbers. This is one part of the list.

T1: RBFOX1 RRM (Homo sapiens, UniProt Q9NWB1 109-208)
T1 sequence: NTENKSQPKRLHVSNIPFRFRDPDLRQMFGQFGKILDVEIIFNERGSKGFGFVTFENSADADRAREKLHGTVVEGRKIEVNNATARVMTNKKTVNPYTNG

B1: ACAAUUU (DNA:RNA)
RNA: GGGAGACCGGAAUUCAGAUUGUCCACAAUUUUUAAAUCCCGUCGUAGCCACCA
DNA 1: CAATCTGAATTCCGGTCTCCC
DNA 2: TGGTGGCTACGACGGGATT
B2: GUCGCUA (DNA:RNA)
RNA: B1 RNA with A25G, C26U, A27C, A28G, U29C, U31A
DNA 1: CAATCTGAATTCCGGTCTCCC
DNA 2: TGGTGGCTACGACGGGATT
B3: AUGGCAU (DNA:RNA)
RNA: B1 RNA with C26U, A27G, A28G, U29C, U30A
DNA 1: CAATCTGAATTCCGGTCTCCC
DNA 2: TGGTGGCTACGACGGGATT
B4: CCUCGGU (DNA:RNA)
RNA: B1 RNA with A25C, A27U, A28C, U29G, U30G
DNA 1: CAATCTGAATTCCGGTCTCCC
DNA 2: TGGTGGCTACGACGGGATT
B5: AGUAGCC (DNA:RNA)
RNA: B1 RNA with C26G, A27U, U29G, U30C, U31C
DNA 1: CAATCTGAATTCCGGTCTCCC
DNA 2: TGGTGGCTACGACGGGATT
B6: CUGAAGC (DNA:RNA)
RNA: B1 RNA with A25C, C26U, A27G, U29A, U30G, U31C
DNA 1: CAATCTGAATTCCGGTCTCCC
DNA 2: TGGTGGCTACGACGGGATT
B7: AUCACCC (DNA:RNA)
RNA: B1 RNA with C26U, A27C, U29C, U30C, U31C
DNA 1: CAATCTGAATTCCGGTCTCCC
DNA 2: TGGTGGCTACGACGGGATT
B8: GAUGCAU (DNA:RNA)
RNA: B1 RNA with A25G, C26A, A27U, A28G, U29C, U30A
DNA 1: CAATCTGAATTCCGGTCTCCC
DNA 2: TGGTGGCTACGACGGGATT
B9: ACAUGCU (DNA:RNA)
RNA: B1 RNA with A28U, U29G, U30C
DNA 1: CAATCTGAATTCCGGTCTCCC
DNA 2: TGGTGGCTACGACGGGATT
B10: UGUCGUG (DNA:RNA)
RNA: B1 RNA with A25U, C26G, A27U, A28C, U29G, U31G
DNA 1: CAATCTGAATTCCGGTCTCCC
DNA 2: TGGTGGCTACGACGGGATT
B11: ACUUACC (DNA:RNA)
RNA: B1 RNA with A27U, A28U, U29A, U30C, U31C
DNA 1: CAATCTGAATTCCGGTCTCCC
DNA 2: TGGTGGCTACGACGGGATT
B12: UUAUCAU (DNA:RNA)
RNA: B1 RNA with A25U, C26U, A28U, U29C, U30A
DNA 1: CAATCTGAATTCCGGTCTCCC
DNA 2: TGGTGGCTACGACGGGATT
B13: GUGUUCG (DNA:RNA)
RNA: B1 RNA with A25G, C26U, A27G, A28U, U30C, U31G
DNA 1: CAATCTGAATTCCGGTCTCCC
DNA 2: TGGTGGCTACGACGGGATT
B14: CAACCAA (DNA:RNA)
RNA: B1 RNA with A25C, C26A, A28C, U29C, U30A, U31A
DNA 1: CAATCTGAATTCCGGTCTCCC
DNA 2: TGGTGGCTACGACGGGATT
B15: UGUCUUU (DNA:RNA)
RNA: B1 RNA with A25U, C26G, A27U, A28C
DNA 1: CAATCTGAATTCCGGTCTCCC
DNA 2: TGGTGGCTACGACGGGATT
B16: GGAUACC (DNA:RNA)
RNA: B1 RNA with A25G, C26G, A28U, U29A, U30C, U31C
DNA 1: CAATCTGAATTCCGGTCTCCC
DNA 2: TGGTGGCTACGACGGGATT
B17: UCUGGCA (DNA:RNA)
RNA: B1 RNA with A25U, A27U, A28G, U29G, U30C, U31A
DNA 1: CAATCTGAATTCCGGTCTCCC
DNA 2: TGGTGGCTACGACGGGATT
B18: GCAGCUA (DNA:RNA)
RNA: B1 RNA with A25G, A28G, U29C, U31A
DNA 1: CAATCTGAATTCCGGTCTCCC
DNA 2: TGGTGGCTACGACGGGATT
B19: AUGUGUA (DNA:RNA)
RNA: B1 RNA with C26U, A27G, A28U, U29G, U31A
DNA 1: CAATCTGAATTCCGGTCTCCC
DNA 2: TGGTGGCTACGACGGGATT
B20: GGACUGC (DNA:RNA)
RNA: B1 RNA with A25G, C26G, A28C, U30G, U31C
DNA 1: CAATCTGAATTCCGGTCTCCC
DNA 2: TGGTGGCTACGACGGGATT
B21: CCGGUAA (DNA:RNA)
RNA: B1 RNA with A25C, A27G, A28G, U30A, U31A
DNA 1: CAATCTGAATTCCGGTCTCCC
DNA 2: TGGTGGCTACGACGGGATT
B22: GUUCUGG (DNA:RNA)
RNA: B1 RNA with A25G, C26U, A27U, A28C, U30G, U31G
DNA 1: CAATCTGAATTCCGGTCTCCC
DNA 2: TGGTGGCTACGACGGGATT
B23: GGAAGUU (DNA:RNA)
RNA: B1 RNA with A25G, C26G, U29G
DNA 1: CAATCTGAATTCCGGTCTCCC
DNA 2: TGGTGGCTACGACGGGATT
B24: CCUCCUU (DNA:RNA)
RNA: B1 RNA with A25C, A27U, A28C, U29C
DNA 1: CAATCTGAATTCCGGTCTCCC
DNA 2: TGGTGGCTACGACGGGATT
B25: GUUCGUC (DNA:RNA)
RNA: B1 RNA with A25G, C26U, A27U, A28C, U29G, U31C
DNA 1: CAATCTGAATTCCGGTCTCCC
DNA 2: TGGTGGCTACGACGGGATT
B26: CGUUCCU (DNA:RNA)
RNA: B1 RNA with A25C, C26G, A27U, A28U, U29C, U30C
DNA 1: CAATCTGAATTCCGGTCTCCC
DNA 2: TGGTGGCTACGACGGGATT
B27: GCGCGGA (DNA:RNA)
RNA: B1 RNA with A25G, A27G, A28C, U29G, U30G, U31A
DNA 1: CAATCTGAATTCCGGTCTCCC
DNA 2: TGGTGGCTACGACGGGATT
B28: CAAACGC (DNA:RNA)
RNA: B1 RNA with A25C, C26A, U29C, U30G, U31C
DNA 1: CAATCTGAATTCCGGTCTCCC
DNA 2: TGGTGGCTACGACGGGATT
B29: GAGUAAC (DNA:RNA)
RNA: GGGAGACCGGAAUUCAGAUUGUCCGAGUAACUUAAAUCCCGUCGUAGCCACCA
DNA 1: CAATCTGAATTCCGGTCTCCC
DNA 2: TGGTGGCTACGACGGGATT
B30: AUAGUCA (DNA:RNA)
RNA: B1 RNA with C26U, A28G, U30C, U31A
DNA 1: CAATCTGAATTCCGGTCTCCC
DNA 2: TGGTGGCTACGACGGGATT
B31: AGACUAU (DNA:RNA)
RNA: B1 RNA with C26G, A28C, U30A
DNA 1: CAATCTGAATTCCGGTCTCCC
DNA 2: TGGTGGCTACGACGGGATT

Molecular target: T1, RBFOX1 RRM
Experiment: EMSA; HiTS-Eq, 1 nM pool, 10 min; buffer printed only for the single-RNA assays: 10 mM Tris pH 7.5, 150 mM NaCl, 3.4 mM EDTA, 0.001% NP-40, 30 C
Details: tags: His6 N-terminal (pET28a); label: 5' 32P
In short: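 Purified RbFox RRM (wild type or mutant) was equilibrated for 10 min in 50 µL with 1 nM of a 5′-radiolabelled pool of RNA with 7 randomized nucleotides, its flanks annealed to DNA oligonucleotides, across increasing protein concentrations. Free RNA was separated by 8% native PAGE, excised, reverse-transcribed, PCR-barcoded and sequenced on an Illumina HiSeq 2500. Relative association constants came from read-count changes of each variant against the control reaction, normalised to the cognate motif.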

Row | Binder | binding signal
1 | B1 | 0.000785 KA relative to UGCAUGU
2 | B2 | 0.0101 KA relative to UGCAUGU
3 | B3 | 0.0152 KA relative to UGCAUGU
4 | B4 | 0.00827 KA relative to UGCAUGU
5 | B5 | 0.0103 KA relative to UGCAUGU
6 | B6 | 0.0135 KA relative to UGCAUGU
7 | B7 | 0.00275 KA relative to UGCAUGU
8 | B8 | 0.0224 KA relative to UGCAUGU
9 | B9 | 0.0044 KA relative to UGCAUGU
10 | B10 | 0.0277 KA relative to UGCAUGU
11 | B11 | 0.00118 KA relative to UGCAUGU
12 | B12 | 0.00318 KA relative to UGCAUGU
13 | B13 | 0.0247 KA relative to UGCAUGU
14 | B14 | 0.00159 KA relative to UGCAUGU
15 | B15 | 0.018 KA relative to UGCAUGU
16 | B16 | 0.00541 KA relative to UGCAUGU

Row | Binder | binding signal
17 | B17 | 0.0191 KA relative to UGCAUGU
18 | B18 | 0.00719 KA relative to UGCAUGU
19 | B19 | 0.0114 KA relative to UGCAUGU
20 | B20 | 0.0247 KA relative to UGCAUGU
21 | B21 | 0.00723 KA relative to UGCAUGU
22 | B22 | 0.0174 KA relative to UGCAUGU
23 | B23 | 0.0208 KA relative to UGCAUGU
24 | B24 | 0.00445 KA relative to UGCAUGU
25 | B25 | 0.0209 KA relative to UGCAUGU
26 | B26 | 0.00682 KA relative to UGCAUGU
27 | B27 | 0.0204 KA relative to UGCAUGU
28 | B28 | 0.00297 KA relative to UGCAUGU
29 | B29 | 0.00976 KA relative to UGCAUGU
30 | B30 | 0.00256 KA relative to UGCAUGU
31 | B31 | 0.0036 KA relative to UGCAUGU
